# Some of the results follow.
# Test system: PF3D7_0420300 AP2 domain 1 (GST-tagged)
# Experiment: gcPBM binding intensity (ln(normalized median fluorescence intensity)); higher = stronger DNA binding
# In short: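 In this array assay, P. falciparum DNA-binding domains with a GST tag, expressed in E. coli, were applied for 1 h to primer-extended double-stranded 36-bp intergenic genomic probes and negative controls on an Agilent 4 × 180k array. Bound protein was visualised with Alexa488 anti-GST antibody at 488 nm. Binding intensity is the highest Masliner-normalised natural-log median intensity across replicate spots of either probe orientation.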
row,Sequence,gcPBM binding intensity (ln)
1,CGCAAAACAATGATACGTACATATATATATATATAT [XGTACX_site5883],9.21
2,ATTCTTAAATGTGGTTGTACATATTATCACCTTTAA [XGTACX_site8188],9.13
3,TTTTTAATTTTATATACACACATAAAAGATATGAAG [CACACA_site7470],9.13
4,AGTAGATTTTTATTAGTGCATTTTATACTACAAAAA,9.08
5,TATATGTTTAATTTCACACACAAATATACATTTTAA [CACACA_site4171],9.51
6,AAGAAAATGTAGAATTAGAAATAAATGAAGAAATGA [TGCATGCA_negctrl_site548],9.31
7,CATTAGCATTTTATTACACACAATAAATTAGAAGTA [CACACA_site7837],9.4
8,ATATTTATTTATATCATACACACTAATATGTATATT [CACACA_site7576],9.54
9,TATCCCTTAGAATACACACCCATATGAGGGTGAACT [CACACA_site5610],9.15
10,CTTAATGATAAATACATACACACAAAAAATAATATA [CACACA_site2577],9.78
11,TTAATTTCGAATTATTGTACATTAATATATCTACAG [XGTACX_site3314],9.11
12,AAAACAAATAGACACGCACACAAAAAAAAAAAAAAA [CACACA_site801],9.33
13,GAATAAAAAAAAAAAAAAATTTATTTTATAATAAAA [CACACA_negctrl_site1514],8.72
14,ATATATATATATATATGTACATAAATATAAATTTAA [XGTACX_site8715],9.1
15,ATGCAATAATAATGGAGTACATATTAATATTGATCA [XGTACX_site2312],9.28
16,CCTTTTGGATGAAAGTGTACAGGTGAGAAAAATTCC [XGTACX_site3358],9.03
17,AAAAAATATATTAAGGCACACACATACATATATATA [CACACA_site9239],9.88
18,TAATTCTTTATTTTTCGTACGTAAAACAAAAAATAT [XGTACX_site862],8.97
19,AATGTAAAGAACAAAACATGCAACTAGTTTACTTTT [TGCATGCA_site841],9.39

row,Sequence,gcPBM binding intensity (ln)
1,TAAGTATATAAAATTACACACTATTTTTTTTCAAGT [CACACA_site1792],9.1
2,TAGAAAAAAGATAGCACACACGGCCCAATATATATA [CACACA_site5354],9.82
3,TCGAATATCTTATAGGTGCATCATAAATACATATGT,9.25
4,TACATTTATAATAATACACACATAAATTTACATTTT [CACACA_site3463],9.44
5,TATGAAAATTAAGTTTGTACACAAGTGGAAAAAAAA [XGTACX_site6129],9.28
6,AAATTAAATAAATTTACACACTAAAAGTTACCTATA [CACACA_site6623],9.24
7,TTTGTTATTTATTAGTGTACAAAAAAGCATTTCAAA [XGTACX_site8729],8.88
8,AAAAAAAAAAAAAAAAAAAAAAAAAAAAAAAAAAAT [CACACA_negctrl_site882],9.63
9,ATATAAAGAAATTAATTTTTCAACAATAAAAATATA [CACACA_negctrl_site1262],9.01
10,ATATTTTGTAATATTTGTACATATATTATACATATA [XGTACX_site963],9.33
11,AATAATGTATAATGATGTACAAAAAAGGAAGACATA [XGTACX_site2474],9.72
12,TTTTTTTTGCGTACAGTGCAAATTTATTTACTATTC,9.21
13,TACATCGGTATATAAACACACAACAAAAATGCTTAC [CACACA_site5983],9.56
14,AAAATAATTAAAAAAAGTACTCGTAATATAAATATA [XGTACX_site4967],9.38
15,TTAAAAGATATTACATGTACATATTCAATATATGTA [XGTACX_site5895],9.11
16,ACAAATAAATAAAAATGTACAAATGAATACATCTTA [XGTACX_site3780],9.24
17,TTTTTTTAAAAAAACAAAAAAAAAAAAAATATAAAA [TGCATGCA_negctrl_site511],8.89
18,CGTGGGAGCGGACACACACACACACCCATATATATA [CACACA_site4340],10.1
19,TATACATATTATATATGTACACATATTATATGTATA [XGTACX_site5851],9.17

row,Sequence,gcPBM binding intensity (ln)
1,TCAACAAATAAACTTTGTACATATATACAAAATATA [XGTACX_site4447],8.97
2,AATTTAAAAGCTTGTGGTACTTTTGCTCTTCCTTTG [XGTACX_site3148],9.31
3,ATACAAAAAAGAAGGACACACAGAAGTAACATGTTA [CACACA_site3074],9.91
4,TAACATGATATATAATGTACATATAAGATATTTATA [XGTACX_site4383],9.09
5,ATGAATTATATATTATGTACATATAATTAAAATATA [XGTACX_site7140],9.12
6,TTTAAAAAAAAAAAAAAAAATTAAATGAATTATTAA [CACACA_negctrl_site1121],8.55
7,AAATATAATAATATATGTACATATATATATATATAT [XGTACX_site6980],9.06
8,AAAAAAATATATATATATATATATATATATATATAT [TGCATGCA_negctrl_site7],8.75
9,AAAAAAAAAAAAAAAGGTACAGTAAAAAATTCCTCT [XGTACX_site5947],8.98
10,AAATTTAATTTTATATCACACATTAAATTTTAATGG [CACACA_site4251],9.04
11,ATAACATAACATAATACACACATATAAAAAAGAAAT [CACACA_site3028],10.1
12,ATATAATATATTTTCACACATATTTTATGATGATAA [CACACA_site5614],9.1
13,TATGTAAAAAGAGAAAAAAAAAAGAACGATAATTTC [CACACA_negctrl_site946],9.44
14,ATATAAGAATTTAAGAGTACATTCACTTCAAATTTA [XGTACX_site2115],9.02
15,AGGTGTATCATAAAATGTACATACATACATACATAA [XGTACX_site4479],9.33
16,TTGTAATTCATTCAAATATAAAATAAATAAATATGA [CACACA_negctrl_site349],8.98
17,AAAATGTGCTTTTCAGTGCAATTTTTTTTGTAATAA [GTGCAC_site9566],8.82
18,TATTATTATTTTTTATGTACTAACGACAAAAATATT [XGTACX_site252],9.05
19,AGCAACCCCCTAGCTACACACATATAGATATATATA [CACACA_site951],9.86
